Laboratory results: publication PMC4336329 (PLoS ONE, 2015)
The whole screen tested about 310,000 compounds, of which about 2,200 (0.71%) showed an effect of 50% or more. Effects have a minus sign here. Some of the results follow.

The molecules below were run against human ether-à-go-go-related gene (hERG) potassium channel (human, UniProt Q12809) (assay: primary screen, population patch clamp on CHO cells stably expressing hERG).
Sequence of human ether-à-go-go-related gene (hERG) potassium channel (Q12809 whole entry, looked up): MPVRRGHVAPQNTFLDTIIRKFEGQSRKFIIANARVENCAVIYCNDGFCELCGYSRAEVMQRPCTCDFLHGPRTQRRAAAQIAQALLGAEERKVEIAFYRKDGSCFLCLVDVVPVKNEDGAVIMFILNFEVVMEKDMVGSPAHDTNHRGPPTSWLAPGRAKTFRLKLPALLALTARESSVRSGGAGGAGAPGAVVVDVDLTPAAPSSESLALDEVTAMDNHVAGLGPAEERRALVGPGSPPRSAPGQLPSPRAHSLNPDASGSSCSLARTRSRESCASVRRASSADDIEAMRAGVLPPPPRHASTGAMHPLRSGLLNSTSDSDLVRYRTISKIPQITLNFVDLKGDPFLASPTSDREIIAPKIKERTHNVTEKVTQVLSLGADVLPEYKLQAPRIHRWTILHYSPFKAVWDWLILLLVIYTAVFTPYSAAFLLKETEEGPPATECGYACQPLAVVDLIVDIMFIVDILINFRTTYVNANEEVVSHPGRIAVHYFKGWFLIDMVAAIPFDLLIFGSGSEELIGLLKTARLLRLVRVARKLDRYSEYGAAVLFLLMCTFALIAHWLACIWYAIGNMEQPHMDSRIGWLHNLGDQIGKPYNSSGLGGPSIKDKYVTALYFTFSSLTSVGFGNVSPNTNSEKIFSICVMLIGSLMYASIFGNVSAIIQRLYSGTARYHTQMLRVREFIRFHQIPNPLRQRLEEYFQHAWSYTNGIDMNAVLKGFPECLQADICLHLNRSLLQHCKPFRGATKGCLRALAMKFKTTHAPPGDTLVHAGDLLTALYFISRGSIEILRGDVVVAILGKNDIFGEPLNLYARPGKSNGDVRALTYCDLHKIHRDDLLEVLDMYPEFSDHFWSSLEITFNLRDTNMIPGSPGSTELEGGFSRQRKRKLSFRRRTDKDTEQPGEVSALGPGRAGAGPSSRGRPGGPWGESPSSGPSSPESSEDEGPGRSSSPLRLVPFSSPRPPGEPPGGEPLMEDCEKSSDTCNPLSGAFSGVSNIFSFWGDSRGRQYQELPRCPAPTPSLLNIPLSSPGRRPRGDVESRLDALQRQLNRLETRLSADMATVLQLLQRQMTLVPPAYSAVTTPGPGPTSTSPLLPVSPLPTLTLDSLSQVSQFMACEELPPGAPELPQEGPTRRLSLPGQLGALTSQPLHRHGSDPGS

Point of comparison: `CCN1CCN(c2ccc(S(=O)(=O)N3CCCCC3)cc2NC(=O)c2ccc(C)o2)CC1`, “hERG current change (%, negative = inhibition) at 1uM” value -62.4%. Against it:
- O=C(NCc1ccc2c(c1)OCO2)C1CC(=O)N(CCc2ccc(Cl)cc2)C1 (centres unmarked) — higher, -8.47%
- N#Cc1cnn(-c2ccccc2)c1NC(=O)CN1CCOCC1 — higher, 5.17%
- Cc1ccc(OCC(=O)Nc2ccc(C)c(S(=O)(=O)N3CCCCC3)c2)c([N+](=O)[O-])n1 — higher, -23.7%
- CCSc1nc2c(sc3ccccc32)c(=O)n1C(C)C — higher, 4.97%
- O=C(Nc1nccs1)C1CCN(S(=O)(=O)c2ccccc2)CC1 — higher, 10.8%
- CC(C)C(=O)NC(=S)Nc1ccc(CN2CCOCC2)cc1 — higher, 10.3%
- Nc1nc2c(ncn2COC(CO)CO)c(=O)[nH]1 — higher, 14.3%
- O=S1(=O)N=C(Nc2ccc(N3CCOCC3)c(Cl)c2)c2ccccc21 — higher, 16.3%
- O=c1c2ccccc2nnn1Cc1ccccc1Cl — higher, 12.4%
- Cc1ncc(CN2CCC(C(=O)Nc3ccc(-n4cccn4)cc3)CC2)s1 — higher, -6.71%
- COc1ccc(NC(=O)COc2ccc(-c3ccccc3)cc2)cc1 — higher, 11.4%
- O=C1NC(c2ccc3c(c2)OCO3)Nc2ccccc21 (centres unmarked) — higher, 13.5%
- COc1ccc(CNC(=O)C2CCCN(c3nn4c(=O)cc(C)nc4s3)C2)cc1 (centres unmarked) — higher, -12.3%
- COc1ccc(NC(=S)N(CCN2CCOCC2)Cc2cc3cc4c(cc3[nH]c2=O)OCO4)cc1 — higher, 2.95%
- N/C(=N\NS(=O)(=O)c1ccccc1C(F)(F)F)c1ccccn1 — higher, 9.15%
- O=C(CCCN1C(=O)c2ccccc2C1=O)Nc1nccs1 — higher, -3.26%
- CCOc1ccc(S(=O)(=O)Nc2nc3ccccc3nc2Nc2ccc(N3CCOCC3)cc2)cc1 — higher, 0.261%
- OCC[C@@H]1C[C@H](O)[C@@H](O)[C@@]2(CCc3ccccc3CO2)O1 — higher, 5.8%
- Nc1ccc2nonc2c1[N+](=O)[O-] — higher, 7.78%
- Oc1ccc(N=Nc2ccccc2)cc1 — higher, 15.1%
- Cc1cc(C)nc(SCC(=O)NC2CCCCC2C)n1 (centres unmarked) — higher, 12.3%
- O=C(OCCCN=C1NS(=O)(=O)c2ccccc21)c1ccc([N+](=O)[O-])cc1 — higher, 3.18%
- O=C1c2ccccc2S(=O)(=O)c2cc(N3CCN(c4ccccn4)CC3)ccc21 — higher, 6.71%
- CCOc1cc(C)c(C(C)C)cc1S(=O)(=O)n1cnc(C)c1 — higher, -1.92%
- Cc1cc(N2CCOCC2)n2ncc(-c3ccccc3Cl)c2n1 — higher, 10%
- CC(C)(C)C1CCc2onc(C(=O)Nc3cccnc3)c2C1 (centres unmarked) — higher, -9.24%
- COc1cc(C(=O)OCC#N)ccc1OCc1c(C)noc1C — higher, 5.66%
- O=C(N/N=C/c1cccnc1)c1ccccc1Cl — higher, 14.9%
- O=C(COC(=O)CSc1nnc(-c2ccc(Cl)cc2)o1)Nc1cc(Cl)cc(Cl)c1 — higher, 14.3%
- COc1ccc2c(c1)CC/C2=N\OC(=O)c1ccccc1OC — higher, 8.27%
- COc1ccc(C(=O)NCc2cc(C)nc3ccccc23)cc1 — higher, -12.4%
- O=C(COC(=O)c1ccccc1O)NC(=O)c1ccc(OC(F)F)cc1 — higher, 13.1%
- C#CCn1c(=NC(=O)c2ccc(Cl)s2)sc2cccc(OC)c21 — higher, 14.9%
- COc1cc(NC(=O)CCN2C(=O)NC3(CCCC3)C2=O)c(OC)cc1Cl — higher, 8.46%
- CCOC(=O)c1ccc(NC(=O)CCC(=O)NCc2ccco2)cc1 — higher, 13.9%
- O=C(CSc1nnc(-c2ccc(Br)o2)n1Cc1ccccc1)c1ccccc1F — higher, 7.1%
- COc1cccc(C2CCCCN(C)C2=O)c1 (centres unmarked) — higher, -4.09%
- COc1ccc(C(=O)N/N=C(\C)CC(=O)Nc2ccc(Cl)cn2)cc1 — higher, -0.497%
- Cc1ccc(-n2[nH]c(C)c(C=Nc3ccc(S(=O)(=O)Nc4nccs4)cc3)c2=O)cc1 — higher, 3.63%
- O=C(/C=C/c1cccs1)Nc1nc(-c2ccccc2)cs1 — higher, -10%
- CCOC(=O)c1nnn(CC(=O)N2N=C(c3ccc(Cl)cc3)CC2c2ccccc2)c1C(=O)OCC (centres unmarked) — higher, -18.7%
- CN(C)c1ccc(CNc2nc3ccccc3s2)cc1 — higher, 11.5%
- Cc1cccc2c(N=Nc3ccc(S(=O)(=O)Nc4cccc(Cl)c4)cc3[N+](=O)[O-])c(O)[nH]c12 — higher, 27.8%
